# The full ranking holds about 1,000 compounds; the median of “relative growth in counter assay (no AraC = 100%, AraC + DMSO = 0%)” is about -1.1, and the highest 2% start at about 20. This is one part of the list.
# Tested on: HEK293FT dCK*-only
# Experiment: relative growth in counter assay (no AraC = 100%, AraC + DMSO = 0%); higher = more growth rescue independent of IKZF1
# Conditions: compound concentration: 5 uM; AraC concentration: 0.3 uM; overnight pretreatment + 4 days AraC
# Experimental: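 Growth recovery screen of the molecular-glue-like (Specs) library. HEK293FT cells expressing a dCK*-IKZF1 fusion (primary) or dCK* alone (counter) were pretreated overnight with compound at 5 uM, then given 0.3 uM AraC for 4 days. Hoechst nuclei were counted by imaging. Primary: normalised to pomalidomide (100%) and DMSO (0%), mean of 2 replicates. Counter: normalised to no-AraC (100%) and AraC+DMSO (0%), single replicate.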
row,SMILES,relative growth in counter assay
1,Cc1cc(C)nc(NS(=O)(=O)c2ccc(NC(=O)c3sc4nc5c(cc4c3N)CCC5)cc2)n1,-3.64%
2,Cc1cc(C)nc(NS(=O)(=O)c2ccc(NC(=O)c3ccccc3[N+](=O)[O-])cc2)n1,-2.11%
3,COc1ccc(S(=O)(=O)Nc2ccc(S(=O)(=O)Nc3ncccn3)cc2)cc1,-4.6%
4,Cc1cc(NS(=O)(=O)c2ccc(NC(=O)c3ccc(Br)cc3)cc2)nc(C)n1,13.4%
5,Cc1ccc(C)c(OCC(=O)Nc2ccc(S(=O)(=O)Nc3ccccn3)cc2)c1,-1.12%
6,Cc1nc(Nc2cccc(C3CCCN3C(=O)COCCN3CCCC3=O)n2)sc1C (centres undefined),3.35%
7,CCC(Oc1ccccc1)C(=O)Nc1ccc(S(=O)(=O)Nc2nc(C)cc(C)n2)cc1 (centres undefined),-3.58%
8,Cc1cc(NS(=O)(=O)c2ccc(NC(=O)c3cc4ccccc4o3)cc2)nc(C)n1,-3.17%
9,O=C1CCC(N2C(=O)c3ccc(C(=O)O)cc3C2=O)C(=O)N1 (centres undefined),-11.1%
10,CC(C)(N)C(=O)N1CCC(c2cccc(Nc3ncc(-c4cccnc4)s3)n2)CC1,-23.8%
11,Cc1cc(C)nc(NS(=O)(=O)c2ccc(NC(=O)c3ccc(C(C)(C)C)cc3)cc2)n1,-6.45%
12,COc1cc(NS(=O)(=O)c2ccc(NC(=O)c3ccc(C#N)cc3)cc2)nc(OC)n1,3.37%
13,Cc1ncc(C(=O)N2CCOC(c3cccc(Nc4nc(C)c(C)s4)n3)C2)c(C)n1 (centres undefined),-2.64%
14,Cc1cnc(Nc2cccc(C3CN(C(=O)C(C)n4cnc5ccccc54)CCO3)n2)s1 (centres undefined),-6%
15,Cc1ccc(N2C(=O)c3ccc(Oc4ccc(N)cc4)cc3C2=O)cc1,-5.81%
16,O=C(Nc1ccc(S(=O)(=O)Nc2ncccn2)cc1)C1CC(=O)N(CCc2ccc(F)cc2)C1 (centres undefined),-5.62%
17,Cc1nc(C)c(C(=O)N2CCOC(c3cccc(Nc4ncc(C)s4)n3)C2)o1 (centres undefined),-17%
18,CN(Cc1ccccc1)[C@@H]1CCC[C@@H](n2cnc3c(N)nc(N)nc32)[C@@H]1O,-3%
19,Cc1cc(C)nc(NS(=O)(=O)c2ccc(NC(=O)c3ccc(Cl)cc3)cc2)n1,-0.52%
20,COc1ccc(C(=O)Nc2ccc(S(=O)(=O)Nc3ncccn3)cc2)c(OC)c1,-2.17%
21,Cc1cccnc1Nc1nc(C2CCN(CC(N)=O)CC2)cs1,-1.13%
22,CC(C)Oc1ccc(C(=O)Nc2ccc(S(=O)(=O)Nc3ncccn3)cc2)cc1,3.6%
23,Cc1cccc(C)c1OCC(=O)Nc1ccc(S(=O)(=O)Nc2ncccn2)cc1,3.62%
24,COc1cc(NS(=O)(=O)c2ccc(NC(=O)Cc3ccccc3)cc2)nc(OC)n1,6.59%

row,SMILES,relative growth in counter assay
1,O=C(C1CCCCC1)N1CCC(c2cccc(Nc3nccs3)n2)CC1,-10.8%
2,CN1CCCc2cc(C(=O)N3CCCC3c3cccc(Nc4nccs4)n3)ccc21 (centres undefined),1.52%
3,Cc1ccnc(NS(=O)(=O)c2ccc(NC(=O)COc3ccccc3)cc2)n1,1.02%
4,CCCc1cnc(Nc2cccc(C3CCN(C(=O)C4CCCCN4CC(=O)O)CC3)n2)s1 (centres undefined),-19.3%
5,Cc1ccc(C)c2c1[nH]c1nc(SCC(=O)Nc3ccc(F)c(Cl)c3)nnc12,-1.28%
6,COc1cc(C(=O)Nc2ccc(S(=O)(=O)Nc3ncccn3)cc2)cc(OC)c1OC,0.1%
7,Cc1cc(NS(=O)(=O)c2ccc(NC(=O)C(C)(C)C)cc2)nc(C)n1,-3.37%
8,COc1ccccc1OCC(=O)Nc1ccc(S(=O)(=O)Nc2nc(C)cc(C)n2)cc1,-7.04%
9,COc1cccc(C(=O)Nc2ccc(S(=O)(=O)Nc3ncccn3)cc2)c1,-5%
10,Cc1cnc(Nc2cccc(C3CCN(CC(=O)N4CCC(C)CC4)CC3)n2)s1,-9.8%
11,O=C1CCC(N2C(=O)c3ccc(Br)cc3C2=O)C(=O)N1 (centres undefined),-18%
12,CC(=O)NC1(CC(=O)N2CCC(c3cccc(Nc4ncc(C)s4)n3)CC2)CCCCC1,-16%
13,Cc1ccc(C(C)C)c(OCC(=O)Nc2ccc(S(=O)(=O)Nc3ncccn3)cc2)c1,1.72%
14,Cc1ccnc(NS(=O)(=O)c2ccc(NC(=O)CC(C)(C)C)cc2)n1,-3.55%
15,COCC(C)NC(=O)CN1CCC(c2cccc(Nc3nc(C)c(C)s3)n2)CC1 (centres undefined),25.6%
16,Cc1ccnc(NS(=O)(=O)c2ccc(NC(=O)c3cccc(Cl)c3)cc2)n1,7.75%
17,COc1ccc(C(=O)Nc2ccc(S(=O)(=O)Nc3ncccn3)cc2)cc1OC,-2.72%
18,Cc1cc(NS(=O)(=O)c2ccc(NC(=O)CCCOc3ccccc3C)cc2)nc(C)n1,2.18%
19,Cc1ccc(C)c(OCC(=O)Nc2ccc(S(=O)(=O)Nc3ccccn3)cc2)c1C,-3.75%
20,Cc1cc(C)c2[nH]c3nc(SCC(=O)Nc4ccc(Cl)cc4)nnc3c2c1,-17.9%
21,Cc1cc(OCC(=O)Nc2ccc(S(=O)(=O)Nc3ccccn3)cc2)ccc1Cl,-2.95%
22,CCCc1cnc(Nc2cccc(C3CCN(C(=O)Cn4c(CC(C)C)nc5ccccc54)CC3)n2)s1,-2.22%
23,Cc1cc(C)c(OCC(=O)Nc2ccc(S(=O)(=O)Nc3nc(C)cc(C)n3)cc2)c(C)c1,4.97%
24,Cc1cnc(Nc2cccc(C3CCCN3C(=O)CCc3cccc(Cl)c3)n2)s1 (centres undefined),6.38%

row,SMILES,relative growth in counter assay
1,Cc1ccc(Nc2nc(C3CCCN3C(=O)/C=C/c3csc(C)n3)cs2)nc1 (centres undefined),11.1%
2,Cc1cnc(Nc2cccc(C3CCN(CC(=O)Nc4c(F)cccc4F)CC3)n2)s1,-16.6%
3,COc1ccc(CC(=O)Nc2ccc(S(=O)(=O)Nc3nccc(C)n3)cc2)cc1,-20.9%
4,COc1ccc(C(=O)Nc2ccc(S(=O)(=O)Nc3cc(C)nc(C)n3)cc2)cc1,-14%
5,Cc1cc(OCC(=O)Nc2ccc(S(=O)(=O)Nc3ncccn3)cc2)cc(C)c1Cl,-3.02%
6,Cc1cnc(Nc2ccc(C(=O)N3CCC=C(CCC(=O)NO)C3)cn2)s1,-2.5%
7,CC(=O)NC1(C(=O)N2CCC(c3cccc(Nc4ncc(C)s4)n3)CC2)CCCCC1,-26.4%
8,Cc1ccc(N2CC(C(=O)Nc3ccc(S(=O)(=O)Nc4ncccn4)cc3)CC2=O)cc1C (centres undefined),-7.53%
9,COc1cc(NS(=O)(=O)c2ccc(Nc3nc(-c4c(C)nc5ncccn45)cs3)cc2)nc(OC)n1,2.39%
10,CC(=O)N1CCCC(c2csc(Nc3ccc(C)cn3)n2)C1 (centres undefined),2.06%
11,CCCc1cnc(Nc2cccc(C3CCN(C(=O)[C@@H]4CCCN4CCO)CC3)n2)s1,-20.6%
12,Cc1cnc(Nc2cccc(C3(C(N)=O)CCN(C(=O)C4CCCCC4)CC3)n2)s1,-22.4%
13,COc1cc(NS(=O)(=O)c2ccc(NC(=O)COc3ccc(C)cc3)cc2)nc(OC)n1,0.81%
14,Cc1cnc(Nc2cccc(CC3CCN(C(=O)Cn4c(CC(C)C)nc5ccccc54)CC3)n2)s1,4.17%
15,O=C(Nc1ccc(S(=O)(=O)Nc2ccccn2)cc1)c1cccnc1,0.27%
16,O=C(/C=C/c1ccccc1Cl)Nc1ccc(S(=O)(=O)Nc2ncccn2)cc1,-21.8%
17,Cc1nc(Nc2cccc(C3CN(C(=O)CCc4c(C)n[nH]c4C)CCO3)n2)sc1C (centres undefined),2.31%
18,Cc1cnc(Nc2cccc(C3CCN(C(=O)C4CCN(C(C)C)CC4)CC3)n2)s1,11.2%
19,Cc1cc(NS(=O)(=O)c2ccc(NC(=O)C3COc4ccccc4O3)cc2)nc(C)n1 (centres undefined),-10.4%
20,Cc1nc(Nc2cccc(C3CCCN3C(=O)CN3C(=O)NC(C)(C)C3=O)n2)sc1C (centres undefined),13%
21,CCCCc1cnc(Nc2cccc(C3CCN(C(=O)C(C)(C)NC(=O)COC)CC3)n2)s1,-10.6%
22,CNC(=O)C(c1cccc(Nc2ncc(C)s2)n1)C1CCN(C(=O)C2CCCCC2)CC1 (centres undefined),-1.15%
23,Cc1cc(NS(=O)(=O)c2ccc(NC(=O)c3ccc(C)c(C)c3)cc2)nc(C)n1,-8.28%
24,O=S(=O)(Nc1ncccn1)c1ccc(-n2cnnn2)cc1,-1.47%

row,SMILES,relative growth in counter assay
1,CCCc1cnc(Nc2cccc(C3CCN(C(=O)[C@@H](N)C(C)O)CC3)n2)s1 (some centres undefined),-24.9%
2,COCC(C)NC(=O)CN1CCC(c2cccc(Nc3ncc(C)s3)n2)CC1 (centres undefined),-1.08%
3,Cc1cc(C)nc(NS(=O)(=O)c2ccc(NC(=O)C34CC5CC(CC(C5)C3)C4)cc2)n1,-0.65%
4,O=C(Nc1ccc(S(=O)(=O)Nc2ccccn2)cc1)c1ccncc1,3.82%
5,CCC(=O)Nc1ccc(S(=O)(=O)Nc2ncccn2)cc1,0.32%
6,CC1CCc2cc(F)ccc2N1C(=O)CSc1nnc2c(n1)[nH]c1ccccc12 (centres undefined),6.61%
7,CC(=O)Nc1ccc(Oc2ccc3c(c2)C(=O)N(c2ccc(C)cc2)C3=O)cc1,2.18%
8,O=C1CCCN1CCOCC(=O)N1CCOC(c2cccc(Nc3nccs3)n2)C1 (centres undefined),-1.14%
9,COc1nccnc1NS(=O)(=O)c1ccc(NC(=S)NC(=O)/C=C/c2cccs2)cc1,8.21%
10,O=C(CCCOc1ccccc1)Nc1ccc(S(=O)(=O)Nc2ncccn2)cc1,2.79%
11,CCCOC(=O)Nc1ccc(S(=O)(=O)Nc2ncccn2)cc1,8.76%
12,COc1cc(NS(=O)(=O)c2ccc(N3C(=O)C=CC3=O)cc2)nc(OC)n1,-6.78%
13,Cc1cc(NS(=O)(=O)c2ccc(NC(=O)COc3ccc(Cl)cc3C)cc2)nc(C)n1,-2.52%
14,Cc1ccnc(NS(=O)(=O)c2ccc(NC(=O)CC(C)C)cc2)n1,-5.64%
15,O=C1CCC(N2C(=O)c3cccc(NC[C@H]4CC[C@H](C(=O)O)CC4)c3C2=O)C(=O)N1 (some centres undefined),4.01%
16,Cc1nc(Nc2cccc(C3CN(C(=O)c4cccc5cccnc45)CCO3)n2)sc1C (centres undefined),3.18%
17,O=C(COc1ccccc1Cl)Nc1ccc(S(=O)(=O)Nc2ncccn2)cc1,-4.17%
18,COC(C)(C)C(=O)N1CCCC(c2csc(Nc3ccc(C)cn3)n2)C1 (centres undefined),3.45%
19,Cc1cc(CCCC(=O)N2CCCC2c2cccc(Nc3nccs3)n2)ccc1F (centres undefined),1.98%
20,O=C(CN1CCN(CCO)CC1)N1CCC(c2cccc(Nc3ncc(-c4ccccc4)s3)n2)CC1,-16.3%
21,Cc1ccnc(NS(=O)(=O)c2ccc(NC(=O)c3cc(Cl)ccc3Cl)cc2)n1,4.3%
22,O=C1CCC(N2C(=O)c3cc(F)c(N4CCC(Cn5cc(C(=O)O)cn5)CC4)cc3C2=O)C(=O)N1 (centres undefined),10.8%

# Source: the supplement of paper PMC12340641
